Results taken from PMC4336329 (PLoS ONE, 2015).
The campaign covered roughly 310,000 compounds. About 14,000 (4.5%) showed an effect of 50% or more. The effect is printed as a negative number. Some of the results follow.

Biological target: human ether-à-go-go-related gene (hERG) potassium channel (human, UniProt Q12809)
Experiment: primary screen, population patch clamp on CHO cells stably expressing hERG
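Also: peak tail current of the secondary pulse compared with the same well before compound.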

human ether-à-go-go-related gene (hERG) potassium channel, sequence (Q12809 whole entry, looked up): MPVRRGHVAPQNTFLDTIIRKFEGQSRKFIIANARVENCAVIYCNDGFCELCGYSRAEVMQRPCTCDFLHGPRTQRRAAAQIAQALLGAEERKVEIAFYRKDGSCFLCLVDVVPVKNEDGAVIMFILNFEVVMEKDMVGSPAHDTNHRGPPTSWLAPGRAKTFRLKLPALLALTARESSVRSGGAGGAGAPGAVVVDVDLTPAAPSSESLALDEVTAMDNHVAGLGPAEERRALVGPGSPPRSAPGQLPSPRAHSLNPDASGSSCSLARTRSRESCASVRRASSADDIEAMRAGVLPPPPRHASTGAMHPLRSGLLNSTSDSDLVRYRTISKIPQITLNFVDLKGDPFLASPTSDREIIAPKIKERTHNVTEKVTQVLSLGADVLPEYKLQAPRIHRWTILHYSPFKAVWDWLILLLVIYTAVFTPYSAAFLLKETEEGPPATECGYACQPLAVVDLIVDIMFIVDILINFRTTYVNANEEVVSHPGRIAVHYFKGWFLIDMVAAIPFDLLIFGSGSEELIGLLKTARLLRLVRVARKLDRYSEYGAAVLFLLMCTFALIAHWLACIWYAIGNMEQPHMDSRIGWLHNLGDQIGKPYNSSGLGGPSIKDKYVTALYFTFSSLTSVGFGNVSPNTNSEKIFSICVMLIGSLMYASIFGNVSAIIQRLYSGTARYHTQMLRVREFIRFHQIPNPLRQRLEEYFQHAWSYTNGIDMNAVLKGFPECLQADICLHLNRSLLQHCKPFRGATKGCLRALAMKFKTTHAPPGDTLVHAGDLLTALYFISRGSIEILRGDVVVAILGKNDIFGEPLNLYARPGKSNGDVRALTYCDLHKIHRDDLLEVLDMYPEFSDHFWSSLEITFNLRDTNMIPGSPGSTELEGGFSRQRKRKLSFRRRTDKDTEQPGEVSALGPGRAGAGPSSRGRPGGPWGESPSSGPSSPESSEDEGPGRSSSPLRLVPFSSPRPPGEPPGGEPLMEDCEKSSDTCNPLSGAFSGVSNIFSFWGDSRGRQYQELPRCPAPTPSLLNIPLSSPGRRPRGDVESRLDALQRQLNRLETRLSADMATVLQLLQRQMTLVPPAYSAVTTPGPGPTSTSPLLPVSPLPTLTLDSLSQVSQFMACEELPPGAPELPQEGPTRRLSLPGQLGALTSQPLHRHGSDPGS

| SMILES | hERG current change (%, negative = inhibition) at 10uM [%] |
| --- | --- |
| Cc1nn(CC(=O)NCCN2CCOCC2)c(=O)c2cc3sccc3n12 | 23.6 |
| O=C(Oc1ccc(OC(=O)C2CCC2)cc1)C1CCC1 | 0.929 |
| CN(C(=O)CSc1ccc(S(=O)(=O)N2CCCCC2)cn1)c1ccccc1 | -31.7 |
| CCOC(=O)c1c(CN2CCCCC2)oc2ccc(OC)cc12 | -61.6 |
| Cc1oc(-c2cc(F)ccc2F)nc1CN1CCN(c2ncnc3ccccc23)CC1 | -43.6 |
| CCSc1nc2c(c(=O)n1CC)SC(C)C2 (stereo not drawn) | -1.82 |
| COc1ccc(N2CCN(C3CC(=O)N(C)C3=O)CC2)cc1 (stereo not drawn) | 17.4 |
| CCOP(=O)(OCC)C(Cc1ccccc1)NC(C)=O (stereo not drawn) | 5.04 |
| Cc1ccc(C(=O)/C=C/c2cc(C#N)n(C)c2C)cc1 | -23 |
| COc1cc(CN(C)Cc2ccccc2)cc(OC)c1O | -9.78 |
| CC(C)(C)c1ccc(C(=O)Nc2cccc(-n3cnnn3)c2)cc1 | -44.4 |
| COc1ccc(/C=C2\SC(=O)N(CCC(=O)N(C)C3CCS(=O)(=O)C3)C2=O)cc1 (stereo not drawn) | -7.26 |
| COc1ccc(S(=O)(=O)N(CC(C)C)C2CCS(=O)(=O)C2)cc1OC (stereo not drawn) | 4.62 |
| NS(=O)(=O)c1ccc(CCNC(=O)CCNC(=O)c2ccco2)cc1 | 23 |
| CC(=O)c1ccc(NC(=O)CSc2nnc(-c3ccncc3)n2C2CC2)cc1 | -5.46 |
| CCc1nnc(NC(=O)C2CCCN2S(=O)(=O)c2ccccc2)s1 (stereo not drawn) | 14.8 |
| CCC1=NN2C(=N)/C(=C/c3ccc(OS(=O)(=O)c4ccc(C)cc4)c(OC)c3)C(=O)N=C2S1 | -11.6 |
| O=C(Oc1ccc(C(=S)N2CCOCC2)cc1)c1cccc([N+](=O)[O-])c1 | 9.24 |
| COc1cccc(C2C(C#N)=C(N)Oc3cc(C)oc(=O)c32)c1OC (stereo not drawn) | 1.46 |

| SMILES | hERG current change (%, negative = inhibition) at 10uM [%] |
| --- | --- |
| O=C(c1ccco1)N1N=C(c2cccs2)CC1c1cc([N+](=O)[O-])ccc1O (stereo not drawn) | 7.51 |
| CCN(C(=O)COC(=O)c1cn(-c2ccccc2)nc1-c1ccccc1)C1CCS(=O)(=O)C1 (stereo not drawn) | -75.9 |
| O=C(NC(=S)Nc1ccc2c(c1)OCO2)c1ccc(Cl)cc1 | 3.42 |
| c1ccc(C2=NN(c3ccccc3)CC2)cc1 | -5.39 |
| CCC(C(=O)Nc1ccccc1C(=O)N1CCOCC1)N1C(=O)c2ccccc2C1=O (stereo not drawn) | 3.69 |
| COc1ccc(OCC(O)CNCCNc2nccc(C(F)(F)F)n2)cc1 (stereo not drawn) | -23.3 |
| CC(=O)N(C)c1ccc(NC(=O)c2cnn(C)c2)cc1 | 3.39 |
| CCOc1ccc2nc(SCC(=O)Nc3ccc4c(c3)OCO4)sc2c1 | 2.95 |
| CN(C)c1ccc(N=Nc2ccc(S(=O)(=O)[O-])cc2)c2ccccc12.[Na+] | 8.94 |
| CCCC(=O)Nc1c(-c2ccc(OC)cc2)c(=O)c2ccccc2n1C | 10.3 |
| CC(C)(C)NC(=O)CN1C(=O)NC(c2ccccc2)(c2ccccc2)C1=O | 19.4 |
| CC(C)Nc1nnc(SCC(=O)NCc2ccc3c(c2)OCO3)s1 | 17.2 |
| COc1cccc(C(=O)COC(=O)CCC(=O)NC2CCCCC2)c1 | 10.3 |
| COc1ccccc1NC(=O)CSc1nnc(Cn2cnc3ccccc32)o1 | 5.1 |
| CCn1c(/C=C2\C(=O)N(C(C)C)c3ccccc32)nc2ccccc2c1=O | -3.14 |
| O=C(c1ccccc1)c1cc(-c2ccccn2)c(N2CCOCC2)s1 | -29.4 |
| CCCCOc1ccc(S(=O)(=O)N2CCN(C)CC2)cc1 | -0.958 |
| c1ccc(N2CCN(CCc3nnc4n3CCCCC4)CC2)cc1 | -5.3 |
| N#C/C(=C\c1ccc(O)c(O)c1)C(=O)c1ccc(O)c(O)c1 | 10.6 |

| SMILES | hERG current change (%, negative = inhibition) at 10uM [%] |
| --- | --- |
| Cc1cc(C)c(S(=O)(=O)n2c([N+](=O)[O-])cnc2C)cc1C | 4.29 |
| COc1ccc(NC(=O)CSc2nnc(-c3ccccc3)n2Cc2ccco2)cc1OC | -34.6 |
| CCn1c(CCn2c3ccccc3c3ccccc32)n[nH]c1=S | 0.765 |
| CN(C(=O)C1CCOC1)c1nnc(-c2cnccn2)s1 (stereo not drawn) | 11.1 |
| O=C(Cc1ccc([N+](=O)[O-])cc1)Nc1ccc(C(=O)N2CCOCC2)cc1 | 11.9 |
| Cc1c(-c2ccco2)[n+](=O)c2c(n1[O-])CCCCC2 | 10.9 |
| O=C1c2ccccc2C(=O)N1S(=O)(=O)c1ccccc1 | 8.58 |
| CN1Cc2ccccc2N(CC(=O)NCc2ccccc2)C1=O | 9.34 |
| COc1ccc(-n2c(C)cc(C(=O)COC(=O)c3ccc(O)cc3O)c2C)cc1 | 10.7 |
| Fc1cccc(Cl)c1Cn1nnc2c(NCc3ccncc3)ncnc21 | -1.95 |
| O=C(NC(=S)NCc1cccnc1)c1cc(Br)ccc1Cl | 18.2 |
| CC1(C(=O)N/N=C/c2ccc([N+](=O)[O-])o2)CC1(Br)Br (stereo not drawn) | -17 |
| COC(=O)COc1cccc(-n2cnnn2)c1 | 2.56 |
| CCCc1cc(C(=O)N2CCCC(CO)(CCCc3ccccc3)C2)n(C)n1 (stereo not drawn) | -46 |
| CC(C)Nc1nnc(SC(C)C(=O)N(C)C2CCCCC2)s1 (stereo not drawn) | 9.69 |
| O=S(=O)(c1ccc(Cl)cc1)N1CCC(N2CCCCCC2)CC1 | -49.9 |
| Cc1[nH]c(=O)[nH]c(=O)c1S(=O)(=O)N1CCC(C(=O)N2CCN(Cc3ccccc3)CC2)CC1 | 13.2 |
| Cc1ccc(C)c2[nH]c(=O)c(CCNC(=O)c3ccc4c(c3)OCO4)cc12 | 9.6 |
| Clc1ccc(-c2n[nH]c3c2CCC3)c(Cl)c1 | 16.2 |
